# Reference: article PMC4336329 (PLoS ONE, 2015)
# In all, about 310,000 compounds went through this assay and about 2,200 (0.71%) showed an effect of 50% or more. The effect is printed as a negative number. This is one part of the list.
# Target: human ether-à-go-go-related gene (hERG) potassium channel (human, UniProt Q12809)
# Assay: primary screen, population patch clamp on CHO cells stably expressing hERG
# Sequence of human ether-à-go-go-related gene (hERG) potassium channel (Q12809 whole entry, looked up): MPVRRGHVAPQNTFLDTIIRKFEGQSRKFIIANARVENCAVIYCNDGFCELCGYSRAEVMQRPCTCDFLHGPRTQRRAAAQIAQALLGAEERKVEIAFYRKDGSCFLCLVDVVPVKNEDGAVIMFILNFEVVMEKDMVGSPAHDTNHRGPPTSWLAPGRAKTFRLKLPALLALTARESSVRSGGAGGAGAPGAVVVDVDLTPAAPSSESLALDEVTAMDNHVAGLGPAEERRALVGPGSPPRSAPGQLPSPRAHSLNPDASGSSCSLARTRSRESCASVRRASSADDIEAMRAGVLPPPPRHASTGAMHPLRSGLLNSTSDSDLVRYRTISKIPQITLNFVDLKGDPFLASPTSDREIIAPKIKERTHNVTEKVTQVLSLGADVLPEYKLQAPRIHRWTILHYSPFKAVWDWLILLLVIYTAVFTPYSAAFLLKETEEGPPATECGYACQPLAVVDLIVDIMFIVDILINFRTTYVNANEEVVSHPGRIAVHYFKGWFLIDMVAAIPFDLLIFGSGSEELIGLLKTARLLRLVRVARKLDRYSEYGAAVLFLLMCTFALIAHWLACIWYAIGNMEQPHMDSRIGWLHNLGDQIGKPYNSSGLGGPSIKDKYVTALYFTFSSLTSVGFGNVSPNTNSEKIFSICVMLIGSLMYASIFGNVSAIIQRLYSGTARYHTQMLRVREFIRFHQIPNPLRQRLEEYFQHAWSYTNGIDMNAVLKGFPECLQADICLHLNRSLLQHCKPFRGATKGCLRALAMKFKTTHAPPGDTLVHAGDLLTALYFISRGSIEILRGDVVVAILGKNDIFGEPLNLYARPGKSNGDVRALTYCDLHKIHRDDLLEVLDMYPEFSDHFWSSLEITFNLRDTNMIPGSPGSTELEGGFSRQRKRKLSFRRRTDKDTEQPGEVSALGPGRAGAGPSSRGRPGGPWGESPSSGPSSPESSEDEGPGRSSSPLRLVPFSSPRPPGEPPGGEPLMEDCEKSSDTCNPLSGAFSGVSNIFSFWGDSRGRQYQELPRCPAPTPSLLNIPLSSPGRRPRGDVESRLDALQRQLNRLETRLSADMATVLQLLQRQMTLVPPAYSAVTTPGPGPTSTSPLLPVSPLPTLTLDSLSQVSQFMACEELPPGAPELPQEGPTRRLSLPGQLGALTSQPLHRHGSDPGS
row,SMILES,"hERG current change (%, negative = inhibition) at 1uM [%]"
1,N#Cc1ccccc1NC(=O)COC(=O)CCc1ccc(S(=O)(=O)N2CCCCC2)cc1,12.7
2,CCOC(=O)N1CCN(CCC(=O)Nc2cccc(Cl)c2C)CC1.Cl,13.8
3,CCc1ccccc1OCC(=O)Nc1cccc(S(=O)(=O)NC2=NCCC2)c1,10.4
4,O=C(CN(C(=O)c1ccc(Cl)cc1)N1C(=O)C2C3C=CC(C3)C2C1=O)c1cccs1 (stereo not shown),8.89
5,Cc1ccc(C(=O)N2CCc3ccccc32)cc1,9.25
6,COc1cc(C(=O)OC2C[C@H]3CC[C@@H](C2)N3C)ccc1O (stereo partly shown),5.84
7,CCNc1nc(C)c(CN(C(C)=O)c2ccccc2)nc1C#N,3.55
8,O=C(O)CN1C(=O)CC(c2ccccc2)CC1=O,14.9
9,CCn1nnnc1SCC(=O)NCc1ccco1,16.7
10,CC1CCCC(C)N1S(=O)(=O)c1ccc(Cl)cc1 (stereo not shown),2.38
11,CCOc1ccc(NC(=O)CN(C)C(=O)CCSc2ccc(F)cc2)cc1OCC,5.75
12,O=S(=O)(Nc1cccc2nsnc12)c1ccccc1,5.89
13,Cc1ccc(N/C=C/C(=O)c2ccco2)c(O)c1,13
14,Cn1c(=O)c(S(=O)(=O)C(C)(C)C)c(O)c2ccccc21,9.76
15,CSc1ncccc1C(=O)Nc1nnc(C2CC2)s1,-0.0346
16,CC(C)Cn1c(-c2ccc(Br)o2)n[nH]c1=S,9.1
17,Cc1ccc2c(c1)C(c1ccccc1)=NCC(=O)N2,5.08
18,COc1ccccc1Nc1nnc(SCC(=O)N2CC(=O)Nc3ccccc32)s1,9.13
19,CCOc1ccc(C(=O)N2CCN(c3ccccc3)CC2)cc1OCC,1.55
20,COc1ccc(CSc2nnnn2C)cc1F,4.32
21,Cc1c(NS(=O)(=O)N2CCCC2)c(=O)n(-c2ccccc2)n1C,2.13
22,O=C1OCC2=C1C(c1ccc(F)cc1)CC(=O)N2c1ccc(F)cc1 (stereo not shown),3.76

row,SMILES,"hERG current change (%, negative = inhibition) at 1uM [%]"
1,O=C1CCC(c2ccccc2)N1C(=O)c1cccnc1 (stereo not shown),-0.17
2,O=C(NC1CCCCCCC1)C1c2ccccc2C(=O)N1Cc1cccs1 (stereo not shown),9.23
3,COc1ccccc1/C=C/CN1CCN(c2ccccc2)CC1,8.89
4,CN(C)c1ccc(C(c2ccc(N(C)C)cc2)c2ccc([N+](=O)[O-])cc2)cc1,10.9
5,CCc1nc(SCC(=O)OC(C)C)c2ccccc2n1,5.06
6,COc1cccc(N2CCN(C(=O)c3cc4c(s3)CCCCC4)CC2)c1,4.44
7,COC(=O)C1=C(C(=O)OC)[C@@H]2Nc3ccccc3[C@@]23C[C@@H](C(=O)OC)N=C3N1,12.6
8,CCCCCCCCCCC(=O)NNC(=O)c1c(O)c2ccccc2n(CC)c1=O,9.95
9,CSc1nc(N(C)C)nc(N2CC(=O)N(CCNS(=O)(=O)c3ccc(C)cc3)C2=N)n1,17.6
10,CC1CCc2c(sc(NC(=O)CSc3ncnc4c3cnn4-c3ccccc3Cl)c2C#N)C1 (stereo not shown),14.6
11,COc1ccccc1N1CSC2=C(C#N)C(c3ccc(SC)cc3)CC(=O)N2C1 (stereo not shown),14.4
12,CC(OC(=O)c1cccc(-n2cnnn2)c1)C(=O)Nc1ccc(F)cc1Cl (stereo not shown),-2.17
13,COc1ccccc1C(=O)NC(=O)COc1ccc([N+](=O)[O-])cc1,12.8
14,Cc1ccc(N(CCC#N)C(=O)CSc2nnc3ccccn23)cc1,-0.969
15,Cc1ccc(N(CN2C(=O)C3C4CCC(C4)C3C2=O)C(=O)c2ccco2)cc1 (stereo not shown),9.32
16,O=C(CSc1n[nH]c(=O)n1-c1cccnc1)Nc1ccccc1Cl,4.27
17,COc1ccccc1NC(=O)CC1S/C(=N/N=C2\CCCc3ccccc32)NC1=O (stereo not shown),-11.2
18,C=CCOc1ccccc1CN1CCC(Cc2ccccc2)CC1,-51.6
19,O=C(CNC(=O)c1ccccc1)NC1(C(=O)NC2CCCCC2)CCCCC1,0.935
20,COC(=O)C1C(=O)C2=C(CC1C)NC(C)=C(C(=O)OCCOc1ccccc1)C2c1ccc(C)o1 (stereo not shown),9.19
21,Cc1sc2ncnc(SCC(=O)NC3CCCC3)c2c1C,9.15
22,Cc1cc(=O)n(CCCO)c(O)c1C#N,12.2

row,SMILES,"hERG current change (%, negative = inhibition) at 1uM [%]"
1,Cc1ccc(-c2nc3ccccc3c(=O)n2-c2cccnc2)cc1,1.9
2,CCOc1ccc(NC(=O)CN(C)c2ccc(S(=O)(=O)N3CCOCC3)cn2)cc1OCC,8.7
3,Cc1ccc(NC(C#N)c2ccccc2OCc2ccccc2)cc1 (stereo not shown),2.43
4,CS(=O)(=O)Nc1ccc2c(c1)OCC(=O)N2Cc1ccccc1,-1.03
5,O=C(O)c1cccc(NC(=O)c2cc(S(=O)(=O)N3CCOCC3)cs2)c1,5.77
6,CN(C)S(=O)(=O)c1ccc(C(=O)Oc2coc(CSc3ncccn3)cc2=O)cc1,12
7,CC(=O)Cc1nsc(NC(=O)c2ccc(COc3ccccc3C)o2)n1,7.7
8,COCCN1C(=O)c2ccccc2C(C(=O)N2CCN(c3ccccc3)CC2)C1c1ccc(F)cc1 (stereo not shown),12.5
9,O=C(O)CCCN=CC1=C(O)C(C(=O)c2ccccc2)CCC1=O (stereo not shown),10.6
10,COc1ccc(N=Nc2c(-c3ccc(OC)cc3)[nH]oc2=O)cc1,9.47
11,COC(=O)c1ccc2c(=O)n(CCN3CCOCC3)c(SCC(=O)Nc3ccc(C)cc3)nc2c1,-22.2
12,Cc1ccc(OCc2cc(C(=O)N(C)Cc3cnn(-c4ccccc4C)c3)no2)cn1,-16
13,Cc1cc(C(=O)NC(=S)Nc2ccccc2N2CCOCC2)ccc1[N+](=O)[O-],10
14,CCCN(C(=O)c1cc2c(s1)CCC2)c1c(N)n(Cc2ccccc2)c(=O)[nH]c1=O,13.3
15,O=C(COC(=O)C1CCC(=O)N1)Nc1ccc(Br)cc1 (stereo not shown),12.2
16,CC(=O)c1c(NC(=O)c2ccccc2)[nH]c(-c2ccccc2)nc1=S,4.82
17,CC(C)(C)NC(=O)CN(Cc1cccs1)C(=O)CNS(=O)(=O)c1ccccc1,18.7
18,CC(C)(C)NC(=O)CSCc1ccc(Br)cc1,1.24
19,COc1ccc(S(=O)(=O)N2CCCCC2)cc1NC(=O)c1cncc(Br)c1,3.01
20,COc1ccc(-c2cc(C(=O)Nc3c(C)nn(Cc4ccccc4Cl)c3C)no2)cc1,12.8
21,Cn1c(CNC(=O)CCNC(=O)c2ccc(Br)cc2)cc(=O)n(C)c1=O,5.63
22,CCn1c(SC2CCOC2=O)nnc1-c1ccc(Cl)cc1 (stereo not shown),10.8

row,SMILES,"hERG current change (%, negative = inhibition) at 1uM [%]"
1,O=C(CSCc1ccccc1Cl)NN1C(=O)c2ccccc2C1=O,-12.5
2,COc1cc2c(=O)n(CCC(=O)NCC3CCCO3)c(=O)n(CC(=O)Nc3ccc(C)cc3C)c2cc1OC (stereo not shown),14.4
3,Cc1cccc(C)c1NC(=O)CN(C)C(=O)C(c1ccccc1)c1ccccc1,2.71
4,O=C(CO/N=C/c1ccc(OC(F)F)cc1)NCc1cccs1,-3.37
5,COc1cccc2c(=O)c(C(=O)NCc3cccs3)c[nH]c12,23.5
6,O=C(c1cccc(COCC(F)(F)C(F)F)c1)N1CCN(c2ccccc2)CC1,-7.92
7,Cc1ccc(CNC(=S)Nc2cc(C(=O)O)ccc2C)cc1,13.1
8,O=C(Nc1ccccc1)c1ccc(Nc2c([N+](=O)[O-])cc([N+](=O)[O-])c3ccccc23)cc1,12.9
9,CC1C(=O)N2CCCc3cc(S(=O)(=O)NCc4ccc(F)cc4)cc1c32 (stereo not shown),0.411
10,COc1ccc(COc2ccccc2C(=O)NCc2ccccc2)cc1F,17.3
11,Cc1sc2ncn(CC(=O)NCc3ccco3)c(=O)c2c1-c1ccccc1,-1.52
12,Cc1ccc(-c2nc(N)sc2-c2ccccc2)cc1C,13.3
13,COc1ccc(CNc2nc3ccccc3s2)cc1OC,8.99
14,Nn1c(Cc2ccccc2)nc2ccccc2c1=O,13.8
15,COc1ccc(CC(NC(C)=O)C(=O)NC2CCN(S(=O)(=O)c3ccc(NC(C)=O)cc3)CC2)cc1 (stereo not shown),14.1
16,CCOCCCNC(=O)C1CCCN1C(=O)NC1CCCCC1 (stereo not shown),9.54
17,COc1cc(/C=C/c2cc(C(=O)O)c3ccccc3n2)ccc1OC(F)F,14.8
18,O=C(COC(=O)C1(c2ccccc2)CCCC1)N1CCNC1=O,1.78
19,COc1ccc(CC(O)CC2c3c(cc4c(c3OC)OCO4)CCN2C)cc1.Cl (stereo not shown),-51.8
20,CSc1ncccc1C(=O)Nc1nc2ccc(S(C)(=O)=O)cc2s1,10.4
21,CC1(c2ccc(Cl)cc2)NC(=O)N(CC(=O)Nc2ccc(N3CCCCC3)cc2)C1=O (stereo not shown),11.2
22,CCn1c(C2CC(=O)N(c3ccc(C)c(C)c3)C2)nc2ccccc21 (stereo not shown),11.7
